# Laboratory results published in PubChem BioAssay AID485360 (National Center for Advancing Translational Sciences (NCATS), 2010).
# The whole screen tested about 230,000 compounds, of which about 1,500 (0.65%) were called active. Inconclusive means that the source gave no clear call. Such entries were picked first, then a sample of the others. The call rests on the fitted dose curve; in most records, active means well fitted inhibition curve with a large enough effect; inconclusive means small, poorly fitted or top-dose-only effect; inactive means no such curve, though single readings can be large or run the other way. Potencies beside an inconclusive call are fits to weak or partial responses and may not hold up.
# Target: Lethal(3)malignant brain tumor-like protein 1 (Homo sapiens) (UniProt Q9Y468)
# Test: qHTS Assay for the Inhibitors of L3MBTL1; further: nearly all actives have a fitted effect of over 60% in size
# Settings: AlphaScreen L3MBTL1–H3K9me1 peptide binding; activity, negative = inhibition: at 57.1 µM (top of the series)
# How it was run: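 AlphaScreen assay: L3MBTL1 (50 nM final) was preincubated 30 min at room temperature with biotinylated H3(1-15)K9me1 peptide (75 nM final), then 30 min with library compounds; streptavidin donor and nickel chelate acceptor beads (10 ug/mL final) added, 30 min dark.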
# On the % scale 0 is the no-effect control and ±100 the full control effect; potency means the concentration at half of the fitted maximal effect; tags describe the fitted curve by direction and shape.
# UniProt Q9Y468, sequence (Q9Y468 whole entry, looked up): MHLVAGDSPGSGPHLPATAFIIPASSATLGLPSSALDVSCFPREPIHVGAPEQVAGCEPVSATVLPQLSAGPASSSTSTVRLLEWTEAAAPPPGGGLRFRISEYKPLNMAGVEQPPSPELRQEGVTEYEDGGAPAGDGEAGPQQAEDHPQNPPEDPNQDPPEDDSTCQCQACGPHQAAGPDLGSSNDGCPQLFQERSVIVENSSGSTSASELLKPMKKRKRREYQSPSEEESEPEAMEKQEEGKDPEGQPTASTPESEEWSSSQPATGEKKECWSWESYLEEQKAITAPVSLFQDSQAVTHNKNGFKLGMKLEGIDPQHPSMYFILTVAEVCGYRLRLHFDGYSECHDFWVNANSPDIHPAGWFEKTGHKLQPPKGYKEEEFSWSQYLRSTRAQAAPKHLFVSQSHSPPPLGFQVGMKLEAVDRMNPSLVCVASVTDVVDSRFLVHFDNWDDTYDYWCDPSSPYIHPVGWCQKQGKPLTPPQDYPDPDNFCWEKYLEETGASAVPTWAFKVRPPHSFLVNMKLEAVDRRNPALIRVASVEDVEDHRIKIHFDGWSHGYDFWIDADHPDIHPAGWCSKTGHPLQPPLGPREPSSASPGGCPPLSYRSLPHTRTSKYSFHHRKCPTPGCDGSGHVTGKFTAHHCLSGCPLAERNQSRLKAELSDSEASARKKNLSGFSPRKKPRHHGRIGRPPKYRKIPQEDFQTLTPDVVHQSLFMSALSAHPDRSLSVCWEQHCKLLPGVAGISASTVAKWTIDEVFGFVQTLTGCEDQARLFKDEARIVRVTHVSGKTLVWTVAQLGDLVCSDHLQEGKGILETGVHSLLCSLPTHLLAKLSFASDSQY
SMILES,"activity, negative = inhibition",Potency
O=C(CSc1nnc(COc2ccccc2)o1)NCCc1ccccc1,inactive: -1.9%,–
CCOc1ccc2c(c1)C(c1ccc(C)o1)=NNC(c1ccncc1)=N2,–,"inconclusive: 20 µM [inhibitor, single point]"
CC(Sc1nnc(N)s1)C(=O)Nc1ccc2c(c1)OCO2 (configuration not stated),inactive: -3.38%,–
O=C(c1cc(-c2ccccc2)n[nH]1)N1CCc2c([nH]c3ccccc23)C1c1ccccn1 (configuration not stated),–,"inconclusive: 22.4 µM [inhibitor, single point]"
Cc1ccc2nc(NC(=O)C3CCCN3C(=O)OC(C)(C)C)sc2c1 (configuration not stated),–,"inconclusive: 39.8 µM [inhibitor, partial curve]"
O=C(OCC(=O)c1c[nH]c2ccccc12)c1ccc([N+](=O)[O-])s1,inactive: -25.2% [at 11.4 µM],–
O=C(c1ccccc1Cl)N1CCC(c2nc3c(nnn3Cc3ccco3)c(=O)[nH]2)CC1,–,"inconclusive: 5.01 µM [inhibitor, single point]"
CCc1c(C)sc(NC(=O)OC)c1C(=O)N1CCCCC1,inactive: 0.901%,–
O=C(CSc1ccccn1)Nc1ccc(NC(=O)CSc2ccccn2)cc1,inactive: 3.85%,–
CO/N=C(\C(=O)N[C@@H]1C(=O)N2C(C(=O)O)=C(COC(C)=O)CS[C@H]12)c1csc(N)n1 (stereo in doubt),–,"inconclusive: 35.5 µM [inhibitor, single point]"
O=C(N/N=C/c1cc([N+](=O)[O-])ccc1O)c1cc(-c2ccccc2)nc2ccccc12,–,"inconclusive: 28.2 µM [inhibitor, single point]"
O=C(NCc1ccccn1)c1ccc2nc(-c3ccco3)c(-c3ccco3)nc2c1,–,active: 3.55 µM
COC(=O)\C(C(C)=O)=C(/C=C/C=C/C=C/N(C)C)N(C)C,–,active: 7.08 µM
Cc1[nH][nH]c(=O)c1C(c1c(C)[nH][nH]c1=O)c1cn(Cc2cccc3ccccc23)c2ccccc12,–,"inconclusive: 7.94 µM [inhibitor, partial curve]"
CN(C1=C(N2CCOCC2)C(=O)c2ccccc2C1=O)c1ccccc1,–,active: 25.1 µM
O=C(c1cccs1)N1N=C(c2ccccc2)CC1c1ccccc1 (configuration not stated),inactive: -0.728%,–
Cc1ccccc1C(=O)N1CCc2cc(-c3nc(NC(=O)Cc4ccc5c(c4)OCO5)sc3C)ccc21,–,"inconclusive: 39.8 µM [inhibitor, single point]"
O=S(=O)(Nc1ncccn1)c1ccc(Cl)cc1,inactive: -0.56%,–
C=CCNc1nc(N)c(C(=O)Nc2cc(C)on2)s1,inactive: 0.729%,–
COC(=O)N1C(=O)[C@](CC(C)C)(c2ccccc2)N1C(=O)OC,inactive: 0.909%,–
OCc1ccc(O)c2ncccc12,–,active: 17.8 µM
CCOC(=O)C1C(C(=O)Nc2cccc(C(F)(F)F)c2)C1C(=O)NC(C)C (configuration not stated),inactive: -16.2%,–
C/C(=N\Nc1ccc(Cl)c(C(=O)O)c1)c1ccc2c(c1)OCO2,–,"inconclusive: 39.8 µM [inhibitor, single point]"

SMILES,"activity, negative = inhibition",Potency
COc1ccccc1C(=O)OCc1cc(=O)n2ccsc2n1,–,"inconclusive: 35.5 µM [inhibitor, single point]"
COc1cc(NC(=O)[C@@H]2CCCN(S(=O)(=O)c3cccc4cccnc34)C2)cc(OC)c1OC,–,"inconclusive: 7.08 µM [inhibitor, single point]"
CCCCCCC1CC(=O)NC(=S)N1 (configuration not stated),–,"inconclusive: 0.398 µM [inhibitor, full curve]"
CC12CCC(C(=O)N(CSC(=S)N/N=C\c3ccccc3Cl)C1=O)C2(C)C (configuration not stated),–,"inconclusive: 17.8 µM [inhibitor, single point]"
Cc1sc2ncnc(N3CCC(C(=O)Nc4ccc(OC(F)F)c(Cl)c4)CC3)c2c1C,–,"inconclusive: 1.26 µM [inhibitor, single point]"
CCOC(=O)CC(=O)NC(CC(=O)OC)c1ccc(Br)cc1 (configuration not stated),–,"inconclusive: 22.4 µM [inhibitor, single point]"
COc1cccc(NC(=O)CSc2nnc(C3CCCCC3)n2N)c1,–,"inconclusive: 1.41 µM [inhibitor, single point]"
Cc1cccc(NC(=O)c2ccc(N3CCCCC3)c([N+](=O)[O-])c2)n1,–,"inconclusive: 17.8 µM [inhibitor, partial curve]"
Cc1ccc(-n2[nH]c(C)c(/C=N/NC(=O)c3cccc([N+](=O)[O-])c3)c2=O)cc1C,–,"inconclusive: 39.8 µM [inhibitor, single point]"
CCOC(=O)c1ccccc1NC1c2ccccc2C(=O)N1c1ccc(C)cn1 (configuration not stated),–,"inconclusive: 39.8 µM [inhibitor, single point]"
O=C(O)Cn1cc(/C=C2\SC(=O)N(c3ccccc3)C2=O)c2ccccc21,–,"inconclusive: 17.8 µM [inhibitor, partial curve]"
Cc1ccc(C(=O)OCC(=O)Nc2ccc3c(c2)OCO3)o1,–,"inconclusive: 6.31 µM [inhibitor, single point]"
CCCCOc1ccc(CN2CCCCC2)cc1,inactive: -1.29%,–
CN(C)c1ccc(CC2C(=O)Nc3ccccc32)cc1 (configuration not stated),–,"inconclusive: 25.1 µM [inhibitor, single point]"
CC(C)Cn1c(N)c(C(=O)COC(=O)c2ccc(Br)cc2)c(=O)n(C)c1=O,–,"inconclusive: 5.01 µM [inhibitor, single point]"
COc1ccc(N2C(=O)/C(=C\c3ccco3)N=C2SCC(N)=O)cc1Cl,–,"inconclusive: 25.1 µM [inhibitor, single point]"
COc1cc(NC(=O)c2ccccc2)c(OC)cc1NC(=O)CN1CCN(c2ccccn2)CC1,–,"inconclusive: 25.1 µM [inhibitor, single point]"
COc1ccccc1NC(=O)CSc1ccc2nnc(-c3cccnc3)n2n1,inactive: -11.8%,–
CC(C)c1ccc(NC(=O)CSc2ncccc2C(=O)Oc2cccc([N+](=O)[O-])c2)cc1,–,"inconclusive: 28.2 µM [inhibitor, partial curve, poor fit]"
Cc1ccc(N2NC(=O)/C(=C/c3ccc(-c4ccc(Cl)c(C(=O)O)c4)o3)C2=O)cc1,–,active: 28.2 µM
CCCN=C1N(CC)C[C@@H]2[C@@H]3C(=O)N(C)C(=O)[C@@H]3[C@](CC)(C(=O)OC)N12,–,"inconclusive: 39.8 µM [inhibitor, single point]"
Clc1ccccc1C(c1ccccc1)(c1ccccc1)n1ccnc1,–,"inconclusive: 17.8 µM [inhibitor, single point]"
NNC(=O)CN1C(c2ccccc2Br)=Nc2ccc(Br)cc2C1c1ccccc1 (configuration not stated),–,"inconclusive: 3.55 µM [inhibitor, single point]"

SMILES,"activity, negative = inhibition",Potency
S=c1[nH]nc(-c2cc(-c3ccccc3)n[nH]2)n1/N=C/C=C/c1ccco1,–,"inconclusive: 31.6 µM [inhibitor, partial curve]"
O=[N+]([O-])c1ccc(O)c(/C=N/Nc2ccc(Cl)nn2)c1,–,"inconclusive: 3.55 µM [inhibitor, single point]"
Cc1ccc2nc(SCC(=O)N(CC(C)C)c3c(N)n(Cc4ccccc4)c(=O)[nH]c3=O)[nH]c2c1,inactive: -7.32%,–
COc1cccc(CN(C(=O)Cc2c[nH]c3ccccc23)C(C(=O)NC2CCCCC2)c2cccs2)c1 (configuration not stated),–,"inconclusive: 31.6 µM [inhibitor, single point]"
O=C(c1ccc(Cl)c([N+](=O)[O-])c1)N(Cc1ccccc1)C1CCS(=O)(=O)C1 (configuration not stated),–,"inconclusive: 7.08 µM [inhibitor, single point]"
Nc1ccc(S(=O)(=O)NNC(=O)C(=O)NNc2ccccn2)cc1,–,"inconclusive: 39.8 µM [inhibitor, single point]"
CCSc1ncc(Cl)c(C(=O)Nc2sc3c(c2C(=O)NCc2cccnc2)CCCC3)n1,inactive: 1.1%,–
Cc1ccc(/C=C/C(=O)c2ccc(C)cc2)cc1,inactive: 10.7%,–
Cn1cccc1/C=N/N1CCN(c2ccccc2)CC1,–,"inconclusive: 15.8 µM [inhibitor, partial curve]"
CCOC(=O)C1CCN(S(=O)(=O)Cc2ccccc2)C1=O (configuration not stated),inactive: 0.552%,–
Cc1ccc(NC2=C/C(=N/S(=O)(=O)c3cccs3)c3ccccc3C2=O)cc1,–,"inconclusive: 14.1 µM [inhibitor, partial curve]"
COc1cc(CNCc2ccccn2)ccc1OCc1ccc(Cl)cc1Cl,–,"inconclusive: 5.01 µM [inhibitor, partial curve]"
CN1C(=O)C(C)(C)c2cc(S(=O)(=O)N3CCN(c4cccc(Cl)c4)CC3)ccc21,–,"inconclusive: 15.8 µM [inhibitor, single point]"
Cn1c(CN2CCCC2)nc2cc(NS(=O)(=O)c3ccccc3)ccc21,inactive: -8.19%,–
O=C(NC1CCS(=O)(=O)C1)c1cccnc1 (configuration not stated),–,"inconclusive: 10 µM [inhibitor, partial curve]"
CCOC(=O)c1cc2c(ccn2-c2ccc(F)cc2)n1CC(=O)N(CC)CC,inactive: -23.9%,–
CCc1cc2ccc(OC)cc2nc1SCC(=O)NNC(C)=O,–,"inconclusive: 12.6 µM [inhibitor, partial curve]"
Cc1[nH]n(-c2ccccc2)c(=O)c1N=Nc1ccc2c(c1)OCCO2,–,"inconclusive: 0.794 µM [inhibitor, full curve, poor fit]"
CCN(CC(=O)Nc1ccc(NC(C)=O)cc1)C(=O)c1c(C)nn(-c2ccc(F)cc2)c1Cl,inactive: 26.4%,–
COc1ccc(C(CNC(=O)COc2ccc(F)cc2Br)N2CCCC2)cc1 (configuration not stated),–,"inconclusive: 39.8 µM [inhibitor, single point]"
C#CCOCCOCCOCCNc1nc(N2CCN(C(=O)[C@H](Cc3cc4ccccc4[nH]3)n3cc([C@@H](N)C(C)CC)nn3)CC2)nc(N2CCN(C(=O)[C@H](Cc3cc4ccccc4[nH]3)n3cc([C@@H](N)CC(C)C)nn3)CC2)n1 (some centres not stated),–,"inconclusive: 2.24 µM [inhibitor, full curve, poor fit]"
